# In PubChem BioAssay AID1745845 (National Center for Advancing Translational Sciences (NCATS), 2022):
# Out of some 360,000 compounds screened, about 2,600 (0.72%) were called active. The shares of active, inactive and inconclusive entries below differ from those in the screen. The call rests on the fitted dose curve; in most records, active means well fitted inhibition curve with a large enough effect; inconclusive means small, poorly fitted or top-dose-only effect; inactive means no such curve, though single readings can be large or run the other way. Potencies beside an inconclusive call are fits to weak or partial responses and may not hold up.
# Assay: Primary qHTS for Inhibitors of ATXN expression; further: nearly all actives have a fitted effect of over 55% in size
# Details: HEK-293 ATXN2-luciferase reporter, luminescence, 24 h; activity change, negative = inhibition: at 57 µM (top of the series)
# In short: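 ATXN2-luciferase reporter cells (luciferase flanked by upstream and downstream ATXN2 gene portions) were treated 24 h at 37 °C with compounds at up to 57 uM. SteadyGlo luminescence gave expression; GF-AFC fluorescence gave viability.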
# On the % scale 0 is the no-effect control and ±100 the full control effect; potency means the concentration at half of the fitted maximal effect; tags describe the fitted curve by direction and shape.
SMILES,Potency,"activity change, negative = inhibition"
CN(C(=O)CSc1nc2ccccc2s1)c1c(N)n(Cc2ccccc2)c(=O)[nH]c1=O,"inconclusive: 5.32 µM [inhibitor, partial curve, poor fit]",
Cc1cc(N2CCN(C)CC2)nc2ccc(NC(=O)c3ccc(C(C)(C)C)cc3)cc12,"inconclusive: 31.6 µM [inhibitor, single point]",
CCCC(C(=O)Nc1cccc(S(=O)(=O)N2CCCC2)c1)c1ccccc1 (stereo unspecified),"inconclusive: 3.16 µM [inhibitor, partial curve, poor fit]",
Cn1c(=O)c2c(nc(NCCc3ccccc3)n2Cc2ccccc2)n(C)c1=O,"inconclusive: 22.4 µM [inhibitor, single point]",
CCN(CC)C(=O)c1ccc2c(c1)N(Cc1c(F)cccc1Cl)C(=O)c1ccccc1S2,"inconclusive: 22.4 µM [inhibitor, single point]",
CCOC(=O)Cc1c(C)nc2c(-c3ccc(Cl)cc3)c(C)[nH]n2c1=O,"inconclusive: 12.6 µM [inhibitor, partial curve, poor fit]",
COc1cc2[nH]c(=O)n(CCCCCC(=O)N3CC=C(c4ccccc4)CC3)c(=O)c2cc1OC,"inconclusive: 10 µM [inhibitor, partial curve, poor fit]",
CCN(CC)CCn1c(=O)n(-c2ccc(Cl)cc2)c(=O)c2c3c(sc21)CN(C)CC3,"inconclusive: 0.336 µM [inhibitor, partial curve, poor fit]",
CCOC(=O)Cn1c(=N)n(CCOc2ccc(Br)cc2)c2ccccc21,,inactive: -20.2%
CC(C)(O)C(=O)NN(C(=O)c1ccccc1)c1cccc(Br)c1,,inactive: -5.23%
Cn1c(=O)c([N+](=O)[O-])c(Cl)c2ccccc21,"inconclusive: 33.6 µM [inhibitor, partial curve, poor fit]",
O=C(NCc1ccccc1)c1ccc(-c2ccccc2F)o1,,inactive: 77.2%
C[C@H]1CN([C@@H](C)CO)C(=O)c2cc(NC(=O)C3CCCCC3)ccc2O[C@H]1CN(C)Cc1ccc(-c2ccccc2)cc1,"inconclusive: 39.8 µM [inhibitor, single point]",
CNC(=O)CC12CC3CC(CC(C3)C1)C2,,inactive: 0.953%
COc1ccc(NC(=O)C/C(C)=N/NC(=O)c2ccncc2)c([N+](=O)[O-])c1,,inactive: 9.38%
COc1ccc(C(=O)Nc2ccc3nc4c(c(Nc5ccc(OC)c(OC)c5)c3c2)CCCC4)c(OC)c1,"inconclusive: 20 µM [inhibitor, partial curve, poor fit]",
CCc1ccc(OCC(=O)NNC(=O)CSc2ncnc3sc(C)c(C)c23)cc1,"inconclusive: 35.5 µM [inhibitor, single point]",
CCN1CCN(c2ccc(S(=O)(=O)N3CCCCC3)cc2NC(=O)COc2cc(C)ccc2Cl)CC1,"inconclusive: 31.6 µM [inhibitor, partial curve, poor fit]",
CCN(c1ccc(NC(=O)c2ccc(N3CCCC3=O)cc2)cc1)C(C)C,,inactive: -8.9%
O=C1CCCCC1Sc1nnc(-c2ccc3c(c2)OCO3)o1 (stereo unspecified),"inconclusive: 2.51 µM [inhibitor, full curve, poor fit]",
O=C(CCCN1C(=O)/C(=C/c2ccccc2Cl)SC1=S)NNC(=O)c1ccc(Cl)cc1Cl,active: 2.51 µM,
Nc1[nH]n2c(=O)cc(-c3ccccc3)nc2c1N=Nc1ccccc1,"inconclusive: 12.6 µM [inhibitor, partial curve]",

SMILES,Potency,"activity change, negative = inhibition"
Fc1ccc(NC(=S)Nc2cccnc2)c(Cl)c1,,inactive: 7.01%
COc1ccc(-c2nn(C)c(=O)c3ccccc23)cc1NC(=O)COc1ccccc1,"inconclusive: 39.8 µM [inhibitor, single point]",
Cc1ccc(CCNC(=O)c2sc3ncccc3c2-n2c(C)ccc2C)cc1,"inconclusive: 39.8 µM [inhibitor, partial curve, poor fit]",
O=C(Nc1ccc(Cl)cc1)Nc1ccccc1Sc1ncc([N+](=O)[O-])s1,"inconclusive: 39.8 µM [inhibitor, single point]",
CCCC(=O)N1N=C(c2ccccc2)CC1c1cn(C)c2ccccc12 (stereo unspecified),,inactive: 17.1%
C[C@@H]1CN(CC(=O)Nc2ccc3c(c2)Cc2cccc(-c4cc(=O)cc(N5CCOCC5)o4)c2S3)C[C@H](C)O1,"inconclusive: 27.3 µM [inhibitor, partial curve, poor fit]",
Cn1ncc2c(=S)[nH]c(=S)[nH]c21,"inconclusive: 11.2 µM [inhibitor, partial curve]",
Cc1oc(-c2ccc(Cl)cc2)nc1CN1CCCC(C(=O)N2CCN(C(=O)c3ccco3)CC2)C1 (stereo unspecified),,inactive: -36.9%
OC[C@@H]1CN(Cc2ccc(Cl)cc2)C[C@H](n2cnc3c(Nc4ccccc4)ncnc32)O1,"inconclusive: 39.8 µM [inhibitor, partial curve, poor fit]",
CCOc1ccc(N(CC(=O)NC2CC3CCC2C3)S(=O)(=O)c2ccc(C)cc2)cc1 (stereo unspecified),,inactive: -37.9%
C=CC(C)(C)c1c(O)c(CC=C(C)C)c(O)c2c(=O)c3ccc(O)c(O)c3oc12,"inconclusive: 31.6 µM [inhibitor, single point]",
O=C(NCc1ccc(Cl)cc1)C(=O)Nc1cccc(Br)c1,,inactive: 2.54%
CCNC(=S)N1CCN(c2nc(-c3ccc(F)cc3)cs2)CC1,"inconclusive: 17.8 µM [inhibitor, partial curve, poor fit]",
CCCC1(CCC)C(=O)NC(=NCCc2ccc(OC)c(OC)c2)NC1=O,"inconclusive: 1.5 µM [inhibitor, single point]",
Cc1ccc(C(=O)N(Cc2nc3ccccc3c(=O)[nH]2)C2CCCC2)cc1,,inactive: -30%
CCc1nc2c(OCCOc3ccc(F)cc3)cccn2c1N(C=O)Cc1ccc(OC)cc1,"inconclusive: 39.8 µM [inhibitor, single point]",
Cc1csc(SCC(=O)c2cc(C)n(Cc3cccs3)c2C)n1,"inconclusive: 14.1 µM [inhibitor, single point]",
CCCc1sc(N/N=C/c2ccccn2)nc1-c1ccc(Br)cc1,active: 2.82 µM,
Oc1c(Cl)cc(Cl)cc1/C=N/NC(=S)NC1CC2C=CC1C2 (stereo unspecified),"inconclusive: 25.1 µM [inhibitor, partial curve]",
COc1ccc(NS(=O)(=O)c2ccc3[nH]c4c(c3c2)CCCC4)c(OC)c1,"inconclusive: 25.1 µM [inhibitor, partial curve, poor fit]",
O=C1C(Cl)=C(NC(=O)c2ccccc2)C(=O)C(Cl)=C1NC(=O)c1ccccc1,"inconclusive: 37.7 µM [inhibitor, single point]",
Cc1cccc(-c2noc(-c3ccc(N4CCCC4)c([N+](=O)[O-])c3)n2)c1,"inconclusive: 1.41 µM [inhibitor, full curve]",

SMILES,Potency,"activity change, negative = inhibition"
CC(C)CCn1c(N)c(S(=O)(=O)c2cccs2)c2nc3ccccc3nc21,active: 17.8 µM,
COCCn1c(SCC(=O)c2[nH]c(C)c(C(C)=O)c2C)nc2ccccc21,,inactive: 5.35%
O=C(Nc1ccc(F)cc1)c1nc(S(=O)(=O)Cc2ccccc2)ncc1Cl,"inconclusive: 39.8 µM [inhibitor, single point]",
CCOC(=O)c1[nH]ncc1CN1CCc2ccc(NC(=O)C3CCCO3)cc2C1 (stereo unspecified),,inactive: 6.26%
CCSCCc1nnc(NC(=O)Nc2cccc(C(F)(F)F)c2)s1,"inconclusive: 10 µM [inhibitor, partial curve]",
O=C(c1cccs1)N1CCCc2cc(NS(=O)(=O)c3ccc(Cl)cc3)ccc21,"inconclusive: 39.8 µM [inhibitor, single point]",
COc1ccc(OC)c(CNc2nc3ccccc3n2CCN2CCCCC2)c1,"inconclusive: 17.8 µM [inhibitor, partial curve, poor fit]",
Cc1nc(SCC(=O)NCC2COc3ccccc3O2)c2c(C)c(C)sc2n1 (stereo unspecified),"inconclusive: 0.501 µM [inhibitor, single point]",
Cc1nc(N)sc1-c1ccnc(Nc2ccc(N3CCOCC3)cc2)n1,active: 10.9 µM,
Cc1ccc(-c2csc(C(O)c3ccccc3)n2)cc1C (stereo unspecified),,inactive: 36.7%
CC(=O)Nc1ccc(Nc2cc(C)nc3c(-c4ccc(Cl)cc4)c(C)nn23)cc1,"inconclusive: 25.1 µM [inhibitor, single point]",
COc1cccc(Cc2nc3ccccc3nc2SCC(=O)N2CCCCC2C)c1 (stereo unspecified),"inconclusive: 39.8 µM [inhibitor, single point]",
Cc1cc(SCC(=O)c2ccc(O)c(O)c2)n2nc(C)c(-c3ccccc3)c2n1,"inconclusive: 39.8 µM [inhibitor, partial curve, poor fit]",
CCc1nnc(NC(=O)c2nc(S(C)(=O)=O)ncc2Cl)s1,"inconclusive: 31.6 µM [inhibitor, single point]",
CCSc1nnc(NC(=O)[C@H](C)NC(=O)c2ccccc2Cl)s1,"inconclusive: 0.947 µM [inhibitor, partial curve]",
O=C(O)c1[nH]c2ccccc2c1CC(=O)N1CCN(c2ccccc2)CC1,,inactive: -6.4%
CCCC(C)C(=O)Nc1nc(C)c(-c2csc(Nc3ccccc3OC)n2)s1 (stereo unspecified),,inactive: 5.54%
O=c1cc(N/N=C/c2ccccc2)[nH]c(=O)[nH]1,"inconclusive: 15 µM [inhibitor, partial curve, poor fit]",
C#CCn1c2ccccc2c(=O)n1C(C)C,"inconclusive: 0.141 µM [inhibitor, full curve, poor fit]",
FC(F)(F)c1cnc(COc2cc(Cl)cc(Cl)c2)c(Cl)c1,,inactive: -0.0578%
O=S(=O)(NCC(Nc1ccccc1)c1ccccc1)c1ccc(Cl)cc1 (stereo unspecified),"inconclusive: 39.8 µM [inhibitor, single point]",
CCCCCCCCCn1c2c(c(=N)c3c1CCC3)CCCC2,"inconclusive: 2 µM [inhibitor, full curve, poor fit]",
